Experimental findings from PubChem BioAssay AID1240 (Sanford-Burnham Center for Chemical Genomics, 2008) are described below.

About 800 (1.6%) of roughly 50,000 compounds showed an effect of 50% or more. Some of the results follow.

This assay has as its target Bcl-2-like protein 10 (Homo sapiens) (UniProt Q9HD36). Nature of the assay: Phenotype converters, Bcl-B/TR3 peptide binding displacement, primary biochemical FP (AID 1240).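 Further: 0% = Bcl-B with tracer peptide and DMSO and 100% = tracer peptide lacking Bcl-B.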 The settings on record: GST-Bcl-B / FITC-TR3 peptide fluorescence polarization; stronger effect = higher value; compound at 3.75 mg/L.
Sequence of UniProt Q9HD36 (Q9HD36 whole entry, looked up): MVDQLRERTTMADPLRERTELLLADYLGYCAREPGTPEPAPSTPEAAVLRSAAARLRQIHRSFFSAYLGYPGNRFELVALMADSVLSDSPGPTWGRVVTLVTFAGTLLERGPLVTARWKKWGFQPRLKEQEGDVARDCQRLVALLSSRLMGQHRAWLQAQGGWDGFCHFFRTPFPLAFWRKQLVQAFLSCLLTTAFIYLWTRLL
On to `COc1ccc(C2=C/C(=C/c3ccc(Cl)cc3)C(=O)O2)cc1`, for which the displacement was -4.1%.

As to `C/C(=N\N=C(/N)SC1CC(=O)N(c2ccc(C(=O)O)cc2)C1=O)c1ccc(C)cc1` (centres undefined), the displacement is -6%.

As for `Cc1cccc(NC(=O)CC2CCCCC2)c1`, the displacement came out at 2%.

On to `CCOc1cc(/C=C2/C(=O)NC(=O)N(c3ccc(OC)cc3)C2=O)ccc1OCCOc1ccc([N+](=O)[O-])cc1`, for which the displacement is -0.9%.

`Cc1ccc(/C=N/NC(=O)C(C)O)cc1` (centres undefined): the displacement worked out at 7.6%.

As to `COc1ccc(C(=O)N/C(=C\c2ccc(-c3cccc([N+](=O)[O-])c3)o2)C(=O)NCc2cccnc2)cc1`, the displacement was found to be 6.8%.

On to `O=C(O)c1cc(-c2ccc(/C=N/Nc3ccc(Cl)cc3)o2)ccc1Cl`, for which the displacement was 10.7%.

For the compound `Cc1ccc(C#CC(CC(=O)c2ccccc2)CC(=O)c2ccccc2)cc1`, the displacement is -6%.

Take `O=Cc1cn(-c2ccccc2)nc1-c1cccc([N+](=O)[O-])c1`: the displacement was found to be 10.5%.

Regarding `Cc1nnc(Nc2ccc3c(c2)nc(C)n3C)c2ccccc12`, the displacement amounted to 4%.

With `COc1ccc(N2C(=O)/C(=C/c3ccc(OC(=O)C45CC6CC(CC(C6)C4)C5)c(OC)c3)SC2=S)cc1`, the displacement is -4.8%.

As to `OC(COc1ccc(Cl)cc1)CSc1ccccn1` (centres undefined), the displacement was -9.3%.

For `CCOC(=O)c1cnn2c(C)c(C(C)=O)cnc12`, the displacement was -6.7%.

On to `O=C(NC(=S)Nc1ncc(Br)cc1Br)c1cccs1`, for which the displacement stood at 7.3%.

Take `Cc1cc(C)c2c(N)c(C#N)sc2n1`: the displacement was -4.8%.

Regarding `CSc1ccc(/C=C(/NC(=O)c2ccccc2)C(=O)NCCCO)cc1`, the displacement amounted to 1.2%.

As to `O=C1NN(c2ccc(Br)cc2)C(=O)/C1=C\c1ccc(-c2cccc(C(=O)O)c2)o1`, the displacement was found to be 8.7%.

In the case of `O=C(Nc1nc(-c2ccc(Cl)s2)cs1)C(c1ccccc1)c1ccccc1`, the displacement is -18.9%.

Regarding `CCOP(=O)(OCC)/C(=C(\NC(=O)c1ccccc1)C(=O)Nc1ccc(Cl)cn1)c1ccccc1`, the displacement was -3.1%.

Turning to `COc1ccc2c(c1OC)C(=O)O[C@@H]2[C@H]1c2c(cc3c(c2OC)OCO3)CCN1C`, the displacement was -1.4%.

For the compound `CCOc1ccc(NC(=O)CC(C)=O)cc1`, the displacement was -9.2%.

Take `O=C(N/N=C/c1ccc(O)cc1)c1cc2ccccc2cc1O`: the displacement was 10.4%.

Consider `CCN(CC)CCOCCOCCN(CC)CC`, for which the displacement was 0.5%.

As for `CCOc1ccccc1OCCCCN1CCCC1`, the displacement was -6.4%.

Regarding `Cc1cccc(OCC(=O)N/N=C/c2cc([N+](=O)[O-])cc(Br)c2O)c1`, the displacement was determined as 20.5%.

In the case of `COc1ccc(C(=O)N2CCN(Cc3ccccc3C)CC2)cc1OC`, the displacement was -1%.

On to `C=C1CC(C)OC(c2ccccc2O)C1` (centres undefined), for which the displacement is -4.4%.

Take `C=CCNC(=O)/C(=C\c1ccccc1)NC(=O)c1ccc(Cl)cc1Cl`: the displacement is -2%.

As for `O=C(O)c1ccc(N/C(=N\S(=O)(=O)c2ccccc2)c2ccccc2)cc1`, the displacement worked out at 10%.

In the case of `COc1ccc(NC(=O)c2c(NC(=O)C(C)(C)C)sc3c2CCC(C)C3)cc1` (centres undefined), the displacement was 3.3%.

On to `Cc1cc(C(=O)N=Nc2c(O)n(C)c3ccc(Br)cc23)n[nH]1`, for which the displacement is -13.8%.

For `O=C(/C=C/c1ccc(OC(=O)c2cccnc2)cc1)c1ccccc1`, the displacement was -5.7%.

For the compound `CCOC(=O)C(C(=O)Nc1ncccn1)C1CCCCC1` (centres undefined), the displacement was -17.7%.

As to `CCCOc1c(Cl)cc(/C=C2/SC(=S)NC2=O)cc1OC`, the displacement was -1.9%.

In the case of `CCCN1CCC(=NNC(=O)Cc2ccc(OC)cc2)CC1`, the displacement was found to be 3.7%.

For the compound `COc1cc(/C=N/NC(=O)CCc2cc(C(C)(C)C)c(O)c(C(C)(C)C)c2)cc(Br)c1O`, the displacement came to 12.6%.

Consider `COc1cccc(OC)c1C(=O)ON1C(=O)c2ccccc2C1=O`, for which the displacement was 1.3%.

In the case of `O=C(CCC1CCCC1)Nc1ccc(F)c(F)c1`, the displacement is -7.2%.

Consider `CCOC(=O)C1=C(c2ccccc2)N=c2s/c(=C\c3cccnc3)c(=O)n2C1c1ccc2c(c1)OCO2` (centres undefined), for which the displacement is -7.3%.

`CCc1ccc(N2CC(C(=O)Nc3cc(C)cc(C)c3)CC2=O)cc1` (centres undefined): the displacement is -1.8%.

As for `CCN(CC)Cc1cc(NC2=NS(=O)(=O)c3ccccc32)ccc1O`, the displacement was -1.2%.

Regarding `O=[N+]([O-])c1c(Cl)cc(O)c2c1C1C=CCC1C(c1ccc(Br)cc1)N2` (centres undefined), the displacement turned out to be 43.8%.

With `CCCOc1c(Br)cc(C2C3=C(CC(C)(C)CC3=O)OC3=C2C(=O)CC(C)(C)C3)cc1OC`, the displacement stood at 6%.

Regarding `COC(=O)c1cccc(NC(=O)COc2c(C)cccc2C)c1`, the displacement was -1.9%.

For the compound `O=C(NCCCNC(=O)Nc1ccccc1)Nc1ccccc1`, the displacement was -5%.

As for `Cc1cc(=O)[nH]c(SCCOc2ccc(C)c(C)c2)n1`, the displacement was found to be 19.7%.

`CC(C)(C)C1CCc2c(sc(NC(=O)C3CC3c3ccccc3)c2C(N)=O)C1` (centres undefined): the displacement was found to be 5.6%.

In the case of `CC(=O)CCc1oc2ccc(NC(C)=O)cc2c1-c1ccc(C)o1`, the displacement is -4.2%.

As for `Cc1ccc(S(=O)(=O)Nc2cccc3ccc[n+](C)c23)cc1`, the displacement is 8.8%.

Consider `Cc1ccc(OCCOCCN2CCN(C)CC2)cc1C`, for which the displacement is -17.2%.

For the compound `COc1ccc(-n2c(SCC(=O)c3ccc(Br)cc3)nc3ccccc3c2=O)cc1`, the displacement is -5%.

With `CCN(CC)c1ccc(NC(=O)/C=C/c2ccc(OC)c(Br)c2)cc1`, the displacement worked out at 12.6%.

Regarding `C=CCN1C(=O)/C(=C\c2cn(C)c3ccccc23)SC1=S`, the displacement is -0.6%.

Take `N#C/C(=C\c1ccc(-c2cccc([N+](=O)[O-])c2)o1)C(=O)N1CCOCC1`: the displacement is -3.5%.

As to `CCOc1ccccc1/C=N/N1CCN(Cc2ccc(Cl)cc2)CC1`, the displacement is -7.4%.

Turning to `CC(C)CC(=O)N1CCN(Cc2cccnc2)CC1`, the displacement is -8.1%.

For `Cc1ccc(CCC(=O)Nc2ncc(Cc3ccc(F)cc3)s2)o1`, the displacement stood at 11.1%.

On to `CCOc1cc(OCC)cc(C(=O)Nc2ccc(C)cc2)c1`, for which the displacement was found to be 12.8%.

Take `O=C(Nc1ccccc1C(=O)O)c1ccc2c(c1)C(=O)N(c1ccc(Br)cc1)C2=O`: the displacement came to 17.2%.

Take `O=C(Cc1ccccc1)NN=C1CCCC1`: the displacement was -12.2%.

Turning to `COc1ccc(NC(=O)c2cc(-c3ccccc3Cl)nc3ccccc23)c(OC)c1`, the displacement was 8.7%.

As to `NC(=O)c1c(N)sc2c1CCCCCCCCCC2`, the displacement is -8.6%.

In the case of `CCOC(=O)C1=C(O)CSC1=Nc1ccc(Cl)cc1`, the displacement was -6.7%.

`O=C(Nc1cccc(Cl)c1Cl)c1cnccn1`: the displacement is -2.7%.

In the case of `CC12CC3CC(C)(C1)CC(CNC(=O)Nc1ccccc1)(C3)C2`, the displacement stood at 12.7%.

For the compound `Cc1ccc2[nH]c(SCc3ccccc3F)nc2c1C`, the displacement is -5.6%.

Turning to `O=C(CSc1nnc(-c2ccncc2)n1-c1ccccc1)c1ccc(NS(=O)(=O)c2ccccc2)cc1`, the displacement is 9.8%.

With `O=C1c2cccc3cccc(c23)C(=O)N1CC1CCN(S(=O)(=O)c2cccc3cccnc23)CC1`, the displacement amounted to 12.6%.

In the case of `COc1ccc(/C(C)=N/OCC(=O)Nc2cccc(C(F)(F)F)c2)cc1OC`, the displacement was -6.6%.

For the compound `Cc1cccc(NC(=O)c2ccc(S(=O)(=O)N3CCCC3)cc2)c1`, the displacement is -10.3%.

On to `CCCc1cnc(-c2ccc(F)cc2)nc1`, for which the displacement was -6.8%.

On to `CN(C)c1ccc(-c2nc3cc(NC(=S)NC(=O)c4ccco4)ccc3o2)cc1`, for which the displacement stood at 18.3%.

As for `O=C(C1CC2CCC1C2)N1CCN(c2ccc([N+](=O)[O-])cc2)CC1` (centres undefined), the displacement was 2.1%.

For the compound `CC1CC(=O)Nc2cc([N+](=O)[O-])ccc2N1` (centres undefined), the displacement is -3%.

Consider `O=c1ccc(=O)n(CN2CCOCC2)[nH]1`, for which the displacement was 0.1%.

As for `COc1ccc2c(c1OC)C(=O)OC2CC(=O)c1ccc(O)c(I)c1` (centres undefined), the displacement is -1.5%.

Turning to `O=C1CC(c2ccccc2)CC2=C1C(c1ccc(Cl)cc1Cl)Nc1ccccc1N2` (centres undefined), the displacement worked out at 8.6%.

Turning to `COc1cccc(OCCCOc2c(C)cccc2C)c1`, the displacement is -12.3%.

For `CCOC(=O)C1=C(C)NC2=C(C(=O)CCC2)C1c1ccc(OCc2ccc(Cl)cc2)c(OC)c1` (centres undefined), the displacement was -13.8%.

Turning to `COc1ccccc1C(=O)Nc1ccc2ccccc2c1`, the displacement was -5.1%.

As to `CCOC(=O)C1=C(C)NC(=S)NC1c1c(OC)ccc2ccc(OC)cc12` (centres undefined), the displacement amounted to 0.9%.

For `O=C(Nc1cccc([N+](=O)[O-])c1)c1ccccc1C(F)(F)F`, the displacement is -3.8%.

For the compound `O=C(Nc1ccc(S(=O)(=O)Nc2ncccn2)cc1)c1ccc([N+](=O)[O-])cc1`, the displacement is 3.7%.

Regarding `COc1cc(NC(=O)C2CCCCC2)c(OC)cc1Cl`, the displacement is -4.7%.

On to `O=C(Nc1ccccc1C(=O)NC(Cc1ccc(O)cc1)C(=O)O)c1ccccc1` (centres undefined), for which the displacement is -11.6%.

For the compound `COc1ccc(C)cc1NC(=O)/C=C/c1ccccc1`, the displacement is -10.2%.

For the compound `COc1cc(CN2CCN(Cc3ccncc3)CC2)cc(OC)c1O`, the displacement was -1.5%.

With `O=C(O)/C=C/C(=O)Nc1ccc(Oc2cccc(Oc3ccc(NC(=O)/C=C/C(=O)O)cc3)c2)cc1`, the displacement turned out to be 23.7%.

With `CC(C)C(C(=O)O)N1C(=O)/C(=C/c2ccc(N(C)C)cc2)SC1=S` (centres undefined), the displacement is -103%.

On to `O=C(COc1cccc([N+](=O)[O-])c1)Nc1cccc(-c2nc3ccccc3[nH]2)c1`, for which the displacement came out at 1.8%.

As for `CCOC(=O)C1=C(O)/C(=C/c2ccc([N+](=O)[O-])cc2)SC1=Nc1cccc(Cl)c1`, the displacement was determined as 3.2%.

As to `COC(=O)C1=CN(Cc2ccc(OC)cc2)C=C(C(=O)OC)C1c1ccsc1`, the displacement is -0.6%.

In the case of `Cc1ccc(NC(=O)CCC(=O)O)c(C)c1`, the displacement turned out to be 14.4%.

In the case of `CC(=O)N/N=C/c1cc(C)n(-c2cc(Cl)cc(Cl)c2)c1C`, the displacement was -6.6%.

`COc1ccc(CCNC(=O)COc2ccccc2[N+](=O)[O-])cc1OC`: the displacement came out at 12.9%.

As for `CC(=O)N(C1=C(N2CCOCC2)C(=O)c2ccccc2C1=O)C(C)C`, the displacement turned out to be 6.6%.

In the case of `O=C(N/N=C/c1cc(Br)ccc1O)c1cc(C2CC2)[nH]n1`, the displacement was -21.3%.

As to `CCOc1ccc(NC(=O)c2ccc(-c3ccc(Cl)cc3)o2)cc1`, the displacement was -6%.

Regarding `COc1ccc(NC2=CC(=O)CC(C)(C)C2)c(OC)c1`, the displacement was 7.4%.

Take `Cc1cc(C)c(C(=O)/C(=C/c2ccc(Cl)cc2)c2ccccc2)c(=O)[nH]1`: the displacement is -8.7%.

With `CCOc1ccccc1NC(=O)c1c(NC(=O)c2ccccc2Cl)sc2c1CCCCC2`, the displacement was -1.1%.

With `Cc1ccc(NCc2cccnc2)cc1C`, the displacement was found to be 6.9%.

With `CCCCOc1ccc(NC2=NC3(CCCC3)N=C(N)N2)cc1`, the displacement is -2.2%.

Turning to `Cc1ccccc1NCC(=O)N/N=C\c1cc([N+](=O)[O-])cc(Br)c1O`, the displacement is -4.4%.

With `COc1cc(Br)c(/C=N/Nc2ccc(Br)cc2)cc1OC`, the displacement is -4.1%.

As to `COc1ccc(NC2=C(Cl)C(=O)N(c3ccc(C)cc3C)C2=O)cc1`, the displacement is -3.2%.

As for `C#CCOc1cc(Br)c(/C=C2\C(=O)NC(=O)N(c3ccc(C)cc3)C2=O)cc1OC`, the displacement is -20.6%.

As to `C(=N\Nc1ccc2ccccc2n1)/c1ccc(OCc2ccccc2)cc1`, the displacement is -15%.

With `COc1ccc(CCNC(=O)C(=O)Nc2cc(Cl)ccc2C)cc1`, the displacement is -12.3%.
